# Laboratory results taken from the supplement of paper PMC3334620.
# In all, about 33,000 sequences were measured (“E-score (-0.5 to 0.5)”: median about -0.021, highest 2% from about 0.32 on). The list shows a part of the results.
# Target: T1, Zap1 (UniProt P47043)
# T1 sequence: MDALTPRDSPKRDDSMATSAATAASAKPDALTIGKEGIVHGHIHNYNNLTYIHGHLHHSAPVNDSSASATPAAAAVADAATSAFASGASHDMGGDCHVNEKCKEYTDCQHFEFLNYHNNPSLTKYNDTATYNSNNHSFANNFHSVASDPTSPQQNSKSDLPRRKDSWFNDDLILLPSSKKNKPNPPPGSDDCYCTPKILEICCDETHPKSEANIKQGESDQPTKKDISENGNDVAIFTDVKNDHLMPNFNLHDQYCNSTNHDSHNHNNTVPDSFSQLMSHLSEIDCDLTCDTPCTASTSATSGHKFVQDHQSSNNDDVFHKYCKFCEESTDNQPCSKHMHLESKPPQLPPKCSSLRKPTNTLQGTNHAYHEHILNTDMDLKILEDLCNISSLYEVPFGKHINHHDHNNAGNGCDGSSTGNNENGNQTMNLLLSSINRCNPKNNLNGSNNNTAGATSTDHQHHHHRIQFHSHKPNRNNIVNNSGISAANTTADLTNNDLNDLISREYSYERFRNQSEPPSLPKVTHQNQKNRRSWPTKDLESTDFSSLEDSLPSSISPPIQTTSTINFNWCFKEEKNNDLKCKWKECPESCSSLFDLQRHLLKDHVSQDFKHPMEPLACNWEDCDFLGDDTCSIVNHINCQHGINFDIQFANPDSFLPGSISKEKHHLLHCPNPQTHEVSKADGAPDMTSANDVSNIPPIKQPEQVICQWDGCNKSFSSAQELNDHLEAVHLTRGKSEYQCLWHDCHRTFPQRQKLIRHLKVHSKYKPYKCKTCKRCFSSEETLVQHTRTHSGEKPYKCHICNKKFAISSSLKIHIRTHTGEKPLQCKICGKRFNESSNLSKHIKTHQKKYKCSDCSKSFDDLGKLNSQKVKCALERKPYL
# Assay: PBM E-score (8-mer binding enrichment) (E-score (-0.5 to 0.5)); higher = stronger / more preferred TF binding; most listed sequences are background and not binding sites
# Settings: protein concentration: 200 nM; construct: GST-full length
# Summary of the method: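 For each ungapped eight-base word taken together with its reverse complement, the Universal PBM Analysis Suite assigned an E-score. Binding data came from GST-tagged yeast transcription factors, applied at about 100-200 nM, on universal all-10-mer Agilent arrays made double-stranded by primer extension. Fluorescent anti-GST marked bound protein, and scans were normalised with masliner.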
row,Sequence,PBM E-score
1,ACTGGCGA,-0.157
2,CTGCCGAA,-0.128
3,AATGGAAG,-0.0451
4,CCTGGAAG,-0.104
5,ACACCGAG,0.0553
6,CAGGATCG,-0.225
7,AAAGAGAG,-0.111
8,ACTAGCGC,-0.171
9,CCCGGAAA,0.166
10,AGTCATCC,-0.299
11,CATAAGGA,0.0809
12,CAGCCCGG,0.0449
13,GCGCGTAC,-0.104
14,CCCATCGG,0.0241
15,AGGCTCTA,-0.204
16,CTCCGACA,-0.0298
17,ACTCTTGG,0.0055
18,TCAAGAGA,0.0264
19,ATCGCTCC,-0.217
20,CCATCCAC,-0.173
21,TCATATCA,-0.0636
22,AACTGATC,0.0176
23,ATTATCAA,0.105
24,CCGCAACG,0.0923
25,ATAGGGTG,0.214

row,Sequence,PBM E-score
1,GTTGGATA,-0.0536
2,ACCTTCCC,0.065
3,CTAGCACC,0.0633
4,AAACGCAG,-0.0182
5,GACTGGTA,-0.0348
6,AGCACTTG,-0.31
7,AAGTTCAG,-0.0476
8,CGCTGACC,0.315
9,AGTTAAGA,0.00562
10,GGCGACCC,0.202
11,GACCATAC,0.0612
12,CGTATTGC,-0.27
13,ACGTTGGC,-0.16
14,CTTGGACC,-0.122
15,GGGGTTAC,0.464
16,CGGGAATA,-0.0788
17,AGCAGAAC,-0.00799
18,CTATGTGC,-0.0648
19,AGTCGTGA,0.0725
20,CGGGCGAC,-0.259
21,AGCATGCG,-0.0192
22,CCGGTCTC,-0.0169
23,ACTAGAGA,-0.129
24,AGTACTCA,-0.0985
25,GTACCGGA,0.139

row,Sequence,PBM E-score
1,CGCCGTCC,-0.187
2,CCGGGATA,0.214
3,GGGGGTTA,0.0334
4,GCGCGCAA,0.0411
5,CTACTATA,0.0998
6,ACAAGGAA,0.0886
7,AAGTTGGT,0.16
8,ACAATCCC,-0.106
9,CAAGTGTA,-0.0404
10,GAGGACAA,-0.0262
11,ATAGCCCA,0.138
12,CCCCGCGA,-0.0717
13,CCCTGACA,0.0152
14,CGGAGGTC,0.0868
15,CAATTTGA,0.128
16,TACAACGA,0.0208
17,ATAAGCTC,-0.134
18,CGAAACCC,0.288
19,ACACGCTG,-0.112
20,CATAGTTA,0.0955
21,ACTTCGCT,-0.0982
22,AGCGTGGC,-0.192
23,CTGTCGGC,-0.213
24,CCAGCTGC,-0.301
25,GATTTGAC,-0.0613

row,Sequence,PBM E-score
1,AATCTATG,0.00595
2,CGATCCCG,-0.206
3,TATGGTGA,0.0727
4,CTCCGCCA,-0.182
5,GAGGGGCC,-0.0201
6,AGTAGTAG,-0.252
7,CCTTACAA,-0.0124
8,AATATACT,0.0391
9,ACTTGCCC,-0.28
10,GCTCAGCC,-0.19
11,GGGACCAA,-0.127
12,AAGGATTC,-0.128
13,CAAACTAA,0.272
14,AACAACCT,0.273
15,AGGGTATC,0.364
16,AACACGTC,-0.186
17,CGCCAACC,-0.101
18,GCATCTCC,-0.315
19,GGTAGAAA,0.027
20,AGCGAAAC,0.264
21,ACACTCTC,-0.165
22,CTTTTTCC,0.0735
23,CCGCCACA,0.0107
24,AGATATAT,0.178
25,AGTGACCC,0.347

row,Sequence,PBM E-score
1,ATTGATCA,0.0693
2,AATATCGC,-0.103
3,CCCAAACA,0.159
4,CGCGATTA,0.111
5,GAGTTTCA,-0.105
6,CCACGCGC,-0.109
7,CCGTTGTA,0.211
8,GCGTGTAC,-0.0849
9,GATTTCGC,0.14
10,AATACTTG,-0.101
11,ATAGATCG,-0.0988
12,CACGCAGC,-0.227
13,AGTACGTC,-0.07
14,CAAGTTAG,0.134
15,CTCTAAAA,0.0499
16,GCAGCTAC,-0.135
17,AAGATTTA,0.0704
18,AGGTCAGC,0.286
19,CGCCTAAA,-0.00104
20,TATATCAA,0.279
21,CCCATGCG,-0.0228
22,AAGATGGG,-0.0996
23,CGTTCTAA,0.176
24,GCCGTCGA,-0.212
25,TCACCCAA,0.162

row,Sequence,PBM E-score
1,CAACCACC,0.212
2,GGCTCCCA,-0.0912
3,ATGGAGGG,-0.242
4,ATTGCCGC,0.00254
5,AGTCCATG,-0.142
6,GCTGATCC,-0.159
7,ACCTGAAC,0.0973
8,AAAATATC,0.165
9,AGAATAAC,0.159
10,CGGTACAA,0.205
11,AGAAGCCT,-0.223
12,CGGTAGAG,-0.018
13,CGGCCCGC,-0.185
14,AGGCTGGC,-0.127
15,AAACAACG,-0.0949
16,AGGCCTTG,-0.0709
17,GAGGTCGA,0.0415
18,GTGGATAA,0.0423
19,CTTTCATC,0.00048
20,TCATACGA,0.0351
21,CGCGGCCC,0.2
22,GAGCTGAC,0.122
23,CGGAAGAC,0.0464
24,CTTTAGCA,-0.201
25,GCCTTAAA,0.163

row,Sequence,PBM E-score
1,ACATGTGG,0.0607
2,AAGTTGGA,0.00097
3,CGGTTTAA,0.0515
4,CGTTAGGA,0.0403
5,CATCAGAC,-0.173
6,CACTATTA,0.149
7,ACGCCCAT,0.04
8,ACCCATGG,0.281
9,CGATATTA,0.127
10,GCAGAAAA,0.223
11,CCATGAGG,0.116
12,ATTACTGC,-0.0127
13,GTAGAGAA,0.0312
14,AGCTCCCA,-0.116
15,ACCGTGCA,0.142
16,AACATCTA,-0.0958
17,AAAAACTC,0.113
18,CCAGAATA,0.222
19,CCAACTAA,0.0594
20,CACGGTCC,-0.289
21,CCACTTCA,0.00735
22,ACCCTTCC,0.281
